Data: PubChem BioAssay AID686978 (National Center for Advancing Translational Sciences (NCATS), 2013)
Screen size: about 420,000 compounds; about 64,000 (15%) were called active. The shares of active, inactive and inconclusive entries below differ from those in the screen. Calls come from the whole dose curve; as a rule, active = well fitted inhibition curve with a large enough effect; inconclusive = small, poorly fitted or top-dose-only effect; inactive = flat fitted curve, though single readings scatter. No potency is given beside an inconclusive call; the fits are too rough.
% is set by controls: 0 for no effect and ±100 for the full control effect; potency is the fitted concentration of half-maximal effect; tags give direction and shape of the fitted curve.

Test: qHTS for Inhibitors of human tyrosyl-DNA phosphodiesterase 1 (TDP1): qHTS in cells in absence of CPT; note: nearly all actives have a fitted effect of over 55% in size
Conditions: DT40 Tdp1-/- hTDP1 cells, no CPT, ATP luminescence, 48 h; activity change, negative = growth inhibition: at 46.2 µM (top of the series)
Outline: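 Compound effects on proliferation are scored in DT40 Tdp1-/-;hTDP1 cells in the absence of CPT. ATP levels (CellTiter-Glo luminescence) are recorded after a ≥48 hr, 37 °C incubation.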
In the case of `CCSC(=O)N=Nc1ccc(O)cc1`, the Potency is reported as active: 11.6 µM. With `COc1c(Cl)cc(Cl)cc1C(=O)Nc1ccc(CN2CCOCC2)cc1` the Potency was inconclusive [inhibitor, single point]. For `Cc1cccc(N2CCN(S(=O)(=O)c3cc(Br)cc4c3N(C(=O)C3CC3)CC4)CC2C)c1` (stereo unspecified), the Potency was inconclusive [inhibitor, single point]. In the case of `Cc1ccc(NC(=O)C2C3C=CC4(CN(Cc5cccnc5)C(=O)C24)O3)cc1F` (stereo unspecified), the “activity change, negative = growth inhibition” value is reported as inactive: 3.37%. With `CCOC(=O)C1CCN(c2nc3ccccc3nc2C(C#N)C(=O)OCCOC)CC1` (stereo unspecified) the Potency was inconclusive [inhibitor, single point]. In the case of `COc1ccc(CN2CCN(C(=O)C3CCC(CNS(=O)(=O)c4ccc(C)cc4)CC3)CC2)c(OC)c1OC` (stereo unspecified), the Potency is reported as active: 20.6 µM. With `COc1cccc(C(=O)NCC(=O)N/N=C/c2c(C)[nH]c3ccccc23)c1` the Potency was inconclusive [inhibitor, single point]. For `CCCCC(CC)CNC(=O)C1CC=CCC1C(=O)O` (stereo unspecified), the activity change, negative = growth inhibition was inconclusive: -39% [inhibitor]. In the case of `O=[N+]([O-])c1cc(-c2cnc3ccccc3n2)ccc1Cl`, the “activity change, negative = growth inhibition” value is reported as inactive: -9.09%. For `O=C(NCC(O)c1ccc([N+](=O)[O-])cc1)C1CCCCC1` (stereo unspecified), the “activity change, negative = growth inhibition” value was inactive: 13.8%. In the case of `CCNc1ncc2nc(-c3ccccc3)c(=O)n(C[C@H]3CCCO3)c2n1`, the “activity change, negative = growth inhibition” value is reported as inactive: 0.468%. For `COC(=O)c1ccc(-c2ccc(/C=N/NC(=O)CC3(C)OCCCO3)o2)cc1`, the Potency was inconclusive [inhibitor, single point]. In the case of `CC(=O)c1cccc(NC(=O)CCc2nc3sc4c(c3c(=O)[nH]2)CCCC4)c1`, the Potency is reported as active: 13 µM. In the case of `Cc1ccc(S(=O)(=O)Nc2ccc(NC(=O)Nc3ccc(F)cc3F)cc2)cc1`, the Potency is reported as inconclusive [inhibitor, single point]. For `COc1cc(/C=C/C(=O)c2ccc(NS(=O)(=O)c3ccc(C)cc3)cc2)cc(OC)c1O`, the Potency was inconclusive [inhibitor, single point]. In the case of `COC(=O)CN1C(=O)Nc2ccc(Br)cc2C1c1ccccc1Cl` (stereo unspecified), the Potency is reported as inconclusive [inhibitor, partial curve]. In the case of `CCOC(=O)c1cc(S(=O)(=O)Nc2ccc(OC)c(Cl)c2)[nH]n1`, the “activity change, negative = growth inhibition” value is reported as inactive: -21.8%. In the case of `O=C(N/N=C/c1sc(N2CCOCC2)nc1-c1ccccc1)c1cccc(S(=O)(=O)N2CCOCC2)c1`, the Potency is reported as active: 4.61 µM. For `CCOc1ccc(CCNC(=O)CCCc2nnc3n(CC(C)C)c(=O)c4sccc4n23)cc1`, the Potency was active: 18.4 µM. For `COc1ccc2c(Sc3ccccc3)c(C(=O)NCc3cccc(OC)c3OC)[nH]c2c1`, the Potency was inconclusive [inhibitor, single point]. In the case of `CC(=O)Nc1nonc1NC(=O)COc1ccccc1`, the “activity change, negative = growth inhibition” value is reported as inactive: -2.12%. In the case of `CCc1nc2sc3ccccc3c(=O)c2c(=O)n1Cc1ccco1`, the “activity change, negative = growth inhibition” value is reported as inactive: -29.2%. In the case of `COC(=O)CCCNc1ncccc1[N+](=O)[O-]`, the “activity change, negative = growth inhibition” value is reported as inactive: 5.67%. In the case of `Cc1ccc(C(c2nnnn2CCc2ccccc2)N2CCSCC2)cc1` (stereo unspecified), the Potency is reported as inconclusive [inhibitor, single point]. In the case of `O=C1C=CC(=O)N1c1ccc(O)cc1`, the Potency is reported as active: 2.31 µM. With `CC1(C(=O)NS(=O)(=O)c2ccccc2Cl)CCN1C(=O)C1(c2ccccc2)CCCC1` (stereo unspecified) the Potency was inconclusive [inhibitor, partial curve]. For `CC(C)OCCCn1c(SCc2cccc(Br)c2)nc2c(sc3ccccc32)c1=O`, the “activity change, negative = growth inhibition” value was inactive: -1.67%. In the case of `COc1cccc(CC(=O)NNC(=O)c2c(-c3ccccc3)noc2C)c1`, the “activity change, negative = growth inhibition” value is reported as inactive: -0.685%. For `CC(=O)C1CCC2C3CCC4CC(=O)CCC4(C)C3C(C)(O)CC12C` (stereo unspecified), the activity change, negative = growth inhibition was inconclusive: -33.9% [inhibitor]. For `O=C(CSc1nnc(-c2ccccc2Cl)o1)Nc1ccccn1`, the Potency was inconclusive [inhibitor, partial curve]. With `COc1ccc(OC)c(NC(=S)N2CCC(C(O)(c3ccccc3)c3ccccc3)CC2)c1` the Potency was inconclusive [inhibitor, partial curve, poor fit]. With `CC(=O)N1c2ccc(S(=O)(=O)NCC3CCC(C(=O)NCCC(C)C)CC3)cc2CC1C` (stereo unspecified) the Potency was active: 16.4 µM. In the case of `CCOc1ccc(NC(=O)CCS(=O)(=O)c2ccc(C)cc2)cc1`, the Potency is reported as inconclusive [inhibitor, partial curve, poor fit]. With `CCCN1C2CCCC1CC(NC(=O)NC13CC4CC(CC(C4)C1)C3)C2` (stereo unspecified) the Potency was inconclusive [inhibitor, single point]. With `COc1ccccc1Oc1nc2c(c(=O)n(C)c(=O)n2C)n1Cc1cccc(Br)c1` the Potency was inconclusive [inhibitor, single point]. For `COCCNC(=O)c1ccc2c(c1)N(Cc1cccc(Cl)c1)C(=O)c1ccccc1S2(=O)=O`, the Potency was inconclusive [inhibitor, partial curve, poor fit]. In the case of `O=C(OCC(=O)N1CCOCC1)c1ccccc1OCc1ccccc1Cl`, the Potency is reported as inconclusive [inhibitor, single point]. With `COc1cc2oc3ccccc3c2cc1N(CC(=O)N1CCCCC1)S(=O)(=O)c1ccc(C)cc1` the Potency was active: 23.1 µM. With `C=CCn1c(=S)[nH]c2scc(-c3ccco3)c2c1=O` the Potency was inconclusive [inhibitor, partial curve]. For `Cc1ccc(CNC(=O)c2ccc(COc3ccccc3)cc2)cc1`, the Potency was inconclusive [inhibitor, single point]. For `CCc1ccc(NS(=O)(=O)c2cccc3nsnc23)cc1`, the activity change, negative = growth inhibition was inconclusive: -31.4% [inhibitor]. With `O=CNc1cc(-c2cccc(O)c2)cn2c(-c3ccc(F)cc3)cnc12` the Potency was active: 20.6 µM. For `O=S(=O)(Nc1ncccn1)c1ccccc1`, the Potency was active: 16.4 µM. In the case of `COc1cc(C(=O)Oc2cccc(C(=S)N3CCOCC3)c2)cc(OC)c1OC`, the “activity change, negative = growth inhibition” value is reported as inactive: -17.1%. For `Oc1ccc(/C=N\Nc2nncc(-c3ccccc3)n2)cc1`, the Potency was inconclusive [inhibitor, single point]. In the case of `C(=C\c1ccccc1)/C=N/Nc1nc2ccccc2[nH]1`, the Potency is reported as active: 7.31 µM. For `Cc1ccc(S(=O)(=O)N2[C@@H](c3ccc(C(C)(C)C)cc3)C(C(=O)O)=CC[C@H]2c2ccc(C(C)C)cc2)cc1`, the Potency was inconclusive [inhibitor, single point]. For `COc1ccccc1-c1nnc(SCC(=O)c2c(N)n(C3CC3)c(=O)[nH]c2=O)o1`, the “activity change, negative = growth inhibition” value was inactive: -11.6%. In the case of `Cc1cnc(C)c(-c2ccc(F)c3c2OC(CNC(=O)/C=C/c2cccs2)C3)n1` (stereo unspecified), the Potency is reported as active: 20.6 µM. With `CCc1ccc(CN(C(=O)COc2c(C)cccc2C)C2CCS(=O)(=O)C2)cc1` (stereo unspecified) the Potency was inconclusive [inhibitor, single point]. With `CC(=O)Nc1ccc(CN(C)c2c(C)nc3ccc(C(=O)NC4CCN(Cc5ccccc5)CC4)cn23)cc1` the Potency was inconclusive [inhibitor, single point]. With `CC1=NN(C(=O)Cn2nc([N+](=O)[O-])c(Br)c2C)C(O)(C(F)(F)F)C1` (stereo unspecified) the Potency was active: 20.6 µM. For `C[C@H](CO)N1C[C@H](C)[C@@H](CN(C)S(=O)(=O)c2cccs2)Oc2ccc(NS(=O)(=O)c3ccccc3)cc2C1=O`, the Potency was inconclusive [inhibitor, single point]. In the case of `COc1ccc(C(=O)CCC(=O)NC2=NCCS2)cc1`, the Potency is reported as inconclusive [inhibitor, single point]. For `COC(=O)Cc1ccc(NC(=S)NCCO)cc1`, the “activity change, negative = growth inhibition” value was inactive: -2.46%. In the case of `COc1cc(CCC(=O)Nc2ccc(Cl)c(C(F)(F)F)c2)cc(OC)c1OC`, the Potency is reported as active: 8.2 µM. With `CCOc1ccc(-n2c(Cc3ccccc3)nnc2SCc2nc(-c3ccccc3C)no2)cc1` the Potency was inconclusive [inhibitor, single point]. For `CC1(C)Cc2c(c(N3CCOCC3)nc3sc(C(N)=O)c(N)c23)CO1`, the Potency was inconclusive [inhibitor, single point]. In the case of `CCOC(=O)c1c(C)[nH]c(CCC(=O)NCCCN2CCN(c3cccc(Cl)c3)CC2)c1C`, the Potency is reported as active: 16.4 µM. In the case of `CC1(C)Cc2nc3oc4c(=O)n(CC(=O)Nc5ccc(Cl)cc5)cnc4c3cc2CO1`, the Potency is reported as inconclusive [inhibitor, single point]. For `O=C(Nc1ccc(Cl)cc1)Nc1cc(S(=O)(=O)N2CCOCC2)ccc1N1CCCC1`, the Potency was inconclusive [inhibitor, single point]. For `CCOc1ccc(C(=O)/C=C/c2cc(OC)c(OC)c(OC)c2)cc1`, the Potency was active: 8.2 µM. For `NC(=O)c1ccc(Cl)c2ccccc12`, the “activity change, negative = growth inhibition” value was inactive: -8.39%. For `O=C(Nc1ccc2c(c1)OCCO2)C1CC(O)CN1C(=O)Nc1ccccc1` (stereo unspecified), the Potency was inconclusive [inhibitor, partial curve]. With `CCOc1ccccc1NC(=O)CN1C(=O)NC(Cc2c[nH]c3ccccc23)C1=O` (stereo unspecified) the “activity change, negative = growth inhibition” value was inactive: 1.62%. With `NC(=O)c1ccc(NC(=O)COc2cccc3c2CCNC3=O)cc1` the “activity change, negative = growth inhibition” value was inactive: -20.9%. With `CCC(C)(C)NC(=O)CCCSc1nc2ccccc2s1` the Potency was inconclusive [inhibitor, single point]. In the case of `CCCCn1c(SCC(=O)Nc2nnc(C(C)C)s2)nc2c1c(=O)n(C)c(=O)n2C`, the Potency is reported as active: 18.4 µM. With `COCc1cc(=O)[nH]c(Sc2c(-c3ccccc3)c3ccc(Cl)cc3[nH]c2=O)n1` the Potency was inconclusive [inhibitor, single point]. In the case of `CC(=O)c1ccccc1C(=O)N1CCCC(CNC(=O)c2ccccc2Cl)C1` (stereo unspecified), the Potency is reported as inconclusive [inhibitor, single point]. With `O=C1[C@H]2[C@@H](C3CC3)N3C(=O)CN(Cc4ccccn4)C(=O)[C@@]3(Cc3ccccc3)[C@H]2C(=O)N1c1ccccc1` the “activity change, negative = growth inhibition” value was inactive: 4.19%.
